# According to PubChem BioAssay:
# The inconclusive results got no clear call from the source; some entries with a clear call stand among them for comparison. Activity calls are given as the source filed them.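 The calls were made as follows, unless noted: active = thallium entry rate above the same plate's blocked-transporter control wells by more than 3 SD; inconclusive = the two repeat wells disagree; inactive = the rest.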
# Key:
# [1] = FluoZin2 fluorescence counter-screen of MLSMR hits on KCC2-expressing cells (AID 1714); conditions: HEK293-KCC2 + bumetanide/ouabain, at 10 µM, active compounds read high;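 also: raw slope of fluorescence over initial fluorescence between 10 and 20 s after thallium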
# How it was run: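 Test system: HEK cells expressing the K-Cl cotransporter KCC2 | Compound: One dose, 10 µM, 0.1% DMSO | Replication: Duplicates | Evaluation: Normalized thallium flux slope | Detection: FluoZin2-AM (0.5 µM) fluorescence, 480 nm ex/540 nm em, 1 Hz kinetic imaging | Incubation: Overnight culture 37 °C, dye loading 48 min | Reagent: Thallium stimulus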
# [2] = compound effects on native HEK Tl+ uptake – HEK cells, counterscreen 1, counter-screen for KCC2 modulator project, confirmation (AID 1716;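 active = thallium flux rate significantly above the same plate's solvent-only control wells, beyond their mean plus 3 SD; inconclusive = the two replicate wells gave conflicting results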); conditions: HEK293 parental cells, thallium flux FluoZin2, ouabain; at 10 µM; baseline-ratio fluorescence slope, 10–20 s after thallium
# [3] = molecular target: Solute carrier family 12 member 5 (Homo sapiens) (UniProt Q9H2X9); experiment: modulation of KCC2 thallium flux in HEK cells – cell-based, ouabain, retest, confirmation (AID 1717;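 active = thallium flux slope beyond 3 SD from same-plate DMSO control mean in most replicates, usually higher, sometimes lower; inconclusive = repeat tests gave conflicting results; inactive = no significant difference from controls in most replicates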;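 also: slope of initial-normalized fluorescence between seconds 10 and 20 after thallium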); conditions: HEK293-KCC2, thallium flux FluoZin2 fluorescence, at 10 µM, bidirectional: low = inhibitor, high = activator
# [4] = native HEK Tl+ uptake effects, second counter-screen – HEK cells, counterscreen 2, counter-screen for KCC2 modulator project, confirmation (AID 1718;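 active = thallium flux slope above the same plate's solvent-control mean plus 3 SD in both duplicate wells; inconclusive = duplicate wells that disagreed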;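 also: run without ouabain in cells lacking the KCC2 cotransporter; slope of fluorescence scaled to its starting value between 10 and 20 s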); conditions: HEK293 parental, thallium flux FluoZin-2 fluorescence slope; at 10 µM
# How it was run: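 Material: parental HEK cells. Medium: HBSS, 20 mM HEPES. Reagent: thallium sulfate stimulus, 12 mM in buffer, pH 7.3. Incubation: overnight cell culture at 37 °C, 48 min dye loading, compound before thallium. Signal: FluoZin-2 fluorescence kinetics. Read-out basis: thallium influx rate. Repeats: Per-replicate slope values.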
# Sequence of UniProt Q9H2X9 (Q9H2X9 whole entry, looked up): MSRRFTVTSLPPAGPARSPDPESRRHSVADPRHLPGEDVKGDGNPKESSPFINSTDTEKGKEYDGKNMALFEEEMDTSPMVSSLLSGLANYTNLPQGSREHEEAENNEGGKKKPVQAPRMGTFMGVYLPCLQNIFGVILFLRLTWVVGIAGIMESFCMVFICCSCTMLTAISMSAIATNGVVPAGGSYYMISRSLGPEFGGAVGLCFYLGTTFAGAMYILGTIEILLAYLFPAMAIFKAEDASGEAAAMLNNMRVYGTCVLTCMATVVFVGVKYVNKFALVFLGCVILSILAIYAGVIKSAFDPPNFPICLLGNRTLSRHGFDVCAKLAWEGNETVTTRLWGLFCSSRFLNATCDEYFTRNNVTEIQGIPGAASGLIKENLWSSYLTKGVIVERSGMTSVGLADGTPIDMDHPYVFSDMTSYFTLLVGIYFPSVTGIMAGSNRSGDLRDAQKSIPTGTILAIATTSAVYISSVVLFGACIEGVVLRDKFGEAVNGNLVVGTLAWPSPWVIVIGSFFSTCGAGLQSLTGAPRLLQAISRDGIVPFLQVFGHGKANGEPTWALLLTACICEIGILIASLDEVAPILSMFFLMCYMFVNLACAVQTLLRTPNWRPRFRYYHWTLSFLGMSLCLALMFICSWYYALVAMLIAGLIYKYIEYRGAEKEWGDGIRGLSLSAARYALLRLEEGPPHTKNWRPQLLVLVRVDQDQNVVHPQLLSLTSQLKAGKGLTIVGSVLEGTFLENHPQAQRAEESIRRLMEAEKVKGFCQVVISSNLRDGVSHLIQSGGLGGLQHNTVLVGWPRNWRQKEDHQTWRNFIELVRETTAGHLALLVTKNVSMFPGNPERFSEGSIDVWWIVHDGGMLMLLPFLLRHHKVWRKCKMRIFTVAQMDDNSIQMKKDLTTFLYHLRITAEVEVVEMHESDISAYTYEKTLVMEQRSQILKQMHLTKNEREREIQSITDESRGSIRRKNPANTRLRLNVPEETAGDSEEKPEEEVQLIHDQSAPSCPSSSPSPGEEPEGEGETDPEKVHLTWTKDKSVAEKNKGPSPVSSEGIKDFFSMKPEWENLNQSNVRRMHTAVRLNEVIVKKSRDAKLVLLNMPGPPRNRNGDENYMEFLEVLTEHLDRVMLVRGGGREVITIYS
Structure (SMILES),normalized thallium flux [1],thallium flux rate (normalised fluorescence) [2],"raw Tl+ flux slope (below DMSO = inhibition, above = activation) [3]",thallium flux slope [4]
COCCn1c(-c2ccc(Cl)cc2Cl)nc2c(c(=O)c3ccccc3n2C)c1=O,inactive: 0.00472,inconclusive: 0.0066,active: 0.0133,inactive: 0.00962
CCCCn1c(NS(=O)(=O)c2ccc(C)cc2)c(S(=O)(=O)c2ccccc2)c2nc3ccccc3nc21,active: 0.017,inconclusive: 0.00893,inconclusive: 0.0181,inactive: 0.0109
COc1cc(OC)c(C(=O)/C=C/c2ccccc2)c(O)c1O,inconclusive: 0.0053,inactive: 0.00704,inconclusive: 0.0164,–
CCC(=O)N1CCN(c2ccccc2NC(=O)COc2ccccc2Cl)CC1,inconclusive: 0.00441,inconclusive: 0.00311,inactive: 0.0195,–
CC(=O)CCn1c(=O)n(CCC(C)=O)c(=O)n(CCC(C)=O)c1=O,inconclusive: 0.00762,inactive: 0.00834,–,inconclusive: 0.0116
O=C(NC(=S)Nc1ccc2c(c1)OCCO2)c1ccc(F)cc1Cl,active: 0.0224,active: 0.0118,inconclusive: 0.0311,inactive: 0.0112
CCOc1ccc(C(CC(=O)O)NC(=O)C(Sc2ccccc2)c2ccccc2)cc1 (stereo not drawn),inconclusive: 0.00562,inactive: 0.00841,inconclusive: 0.0165,inactive: 0.0117
Cc1ccc2[nH]c(=S)cc(C)c2c1,inconclusive: 0.00813,inconclusive: 0.0297,inconclusive: 0.0312,active: 0.019
Oc1[nH]c2ccccc2c1/C=N/c1nccs1,active: 0.0231,inconclusive: 0.0137,inconclusive: 0.0272,inconclusive: 0.0156
COc1ccc(/C=C/C(=O)NC(=S)NNC(=O)c2cc(OC)c(OC)c(OC)c2)cc1,inconclusive: 0.00888,inactive: 0.00419,inactive: 0.0209,inactive: 0.0103
CC(=O)Nc1sc2c(c1C#N)CCCCC2,inactive: 0.00731,inactive: 0.00758,inactive: 0.066,inconclusive: 0.0108
COc1ccc(NC(=O)Cn2c(=O)sc3ccccc32)c(OC)c1,inactive: 0.00494,inconclusive: 0.00849,inactive: 0.0175,–
CC1CCCN(S(=O)(=O)c2ccc(NC(=O)CCN3C(=O)c4ccccc4C3=O)cc2)C1 (stereo not drawn),inconclusive: 0.00709,inactive: 0.00777,inactive: 0.0205,–
O=C(Nc1nc2c(s1)CN(Cc1ccccc1)CC2)C1CCCC1,inactive: 0.00592,inactive: 0.00747,inconclusive: 0.0176,inactive: 0.0115
Cc1oc(-c2cc(F)ccc2F)nc1CN1CCN(c2cnccn2)CC1,inactive: 0.00604,inactive: 0.00758,inactive: 0.0646,inconclusive: 0.0106
CSC1=NS(=O)(=O)c2c(C)nn(C)c2S1,inactive: 0.00667,inconclusive: 0.00744,inactive: 0.0191,inconclusive: 0.01
O=C(NC(=S)NCC1CCCO1)c1ccc(Cl)cc1Cl (stereo not drawn),active: 0.0289,active: 0.0109,inconclusive: 0.0287,inactive: 0.00935
Cn1c(CSc2nc3ccccc3s2)nnc1SCC(=O)NCc1ccccn1,inactive: 0.00442,inactive: 0.00739,inconclusive: 0.0157,–
Fc1cccc(Cl)c1CSc1nnc(CNc2ccccc2)o1,inactive: 0.00295,active: 0.00578,–,inconclusive: 0.00809
CSc1sc(C(=O)O)c2c1C(=O)CCC2,inconclusive: 0.00651,inactive: 0.00762,inactive: 0.0234,–
COc1cccc(-c2nc(NCCN3CCOCC3)c3ccccc3n2)c1O,inactive: 0.00716,inactive: 0.00784,inactive: 0.0215,inconclusive: 0.0116
Cc1ccc2[nH]c3c(N4CCN(Cc5ccccc5)CC4)ncnc3c2c1,inactive: 0.00498,inactive: 0.00756,inconclusive: 0.0154,–
O=C(NCC1CCCN(C(=O)c2cscn2)C1)c1ccc(-c2ccccc2)cc1 (stereo not drawn),inactive: 0.0045,inconclusive: 0.00702,–,inactive: 0.0106
CC1Cc2ccccc2N1C(=O)CO/N=C/c1ccccc1OC(F)F (stereo not drawn),inconclusive: 0.00332,inconclusive: 0.00682,active: 0.0134,–
S=C(NCc1cccnc1)Nc1ccc(Oc2ccccc2)cc1,inactive: 0.00425,inactive: 0.00729,inconclusive: 0.016,–
CC(NC(=O)Cc1cccs1)c1ccc2c(c1)OCO2 (stereo not drawn),inactive: 0.00675,inactive: 0.00434,inactive: 0.021,–
Cc1ccc2nc(NC(=O)Cn3cc4c(n3)CCCCC4)sc2c1,inconclusive: 0.00683,inconclusive: 0.00886,inactive: 0.0196,–
O=C(Nc1ccc(Cl)cc1)N1CCC(CO)(Cc2ccccc2)CC1,inconclusive: 0.00736,inactive: 0.00813,inconclusive: 0.0187,inactive: 0.0111

Structure (SMILES),normalized thallium flux [1],thallium flux rate (normalised fluorescence) [2],"raw Tl+ flux slope (below DMSO = inhibition, above = activation) [3]",thallium flux slope [4]
CC(=O)Nc1ccc(S(=O)(=O)N(C)CC(=O)OCC(=O)N2CCc3ccccc32)cc1,inactive: 0.00653,inconclusive: 0.0077,–,inconclusive: 0.0105
C/C(=N/NC(=O)c1cccs1)c1ccco1,active: 0.0153,inconclusive: 0.00837,inconclusive: 0.0236,active: 0.0109
C=CCn1c(C)cc(C(=O)CSc2nnc(NCc3ccccc3)s2)c1C,inactive: 0.00468,inconclusive: 0.00656,inconclusive: 0.0173,–
COC(=O)c1ccccc1NC(=S)NC(NC(=O)COc1ccccc1)C(Cl)(Cl)Cl (stereo not drawn),inconclusive: 0.00536,inconclusive: 0.00844,active: 0.0248,inactive: 0.0111
COc1ccc(NC(=O)CCCCCN2C(=O)CCC2=O)cc1Cl,inconclusive: 0.00679,inactive: 0.00847,inactive: 0.0226,inactive: 0.011
O=C(NCc1nc(-c2ccccc2)cs1)c1ccccc1,inconclusive: 0.00557,inactive: 0.0076,inconclusive: 0.0155,–
O=C(OCn1ncc(Cl)c(Cl)c1=O)c1ccc(F)cc1,inconclusive: 0.0057,inactive: 0.0076,inconclusive: 0.0185,–
CCCc1oc2c(c(=O)c1CC)C(=O)CC(C)(C)C2,inactive: 0.00461,inconclusive: 0.00636,inactive: 0.0151,inactive: 0.0105
O=C1Cc2ccccc2C(=O)N1CCc1ccccc1,inactive: 0.00469,inactive: 0.00739,inactive: 0.0181,–
CCCC(=O)N1c2ccccc2NC2=C(C(=O)CCC2)C1c1ccc(F)cc1 (stereo not drawn),inconclusive: 0.00757,inactive: 0.0072,inactive: 0.0212,inconclusive: 0.0102
O=C(CSc1nnc(-c2ccco2)n1Cc1ccccc1)c1ccc(F)cc1,inconclusive: 0.00347,active: 0.00545,active: 0.0124,inconclusive: 0.00867
Cc1nn2c(NCC(C)C)c3c(nc2c1-c1ccccc1)CCC3,inactive: 0.00515,–,inactive: 0.0183,–
CS/C(=C/[N+](=O)[O-])Nc1cccc2c1C(C)CC2(C)C (stereo not drawn),inconclusive: 0.00915,–,active: 0.014,–
Oc1ccccc1C(Nc1nccs1)c1ccc2cccnc2c1O (stereo not drawn),active: 0.0152,–,inconclusive: 0.0232,–
Cc1ccc(S(=O)(=O)NC2=NCN(Cc3ccccc3)CN2)cc1,inactive: 0.00613,–,inconclusive: 0.0183,–
CC(C)c1ccc(NC(=O)c2cnn(-c3ccccc3)c2NC(=O)c2ccco2)cc1,inconclusive: 0.00728,–,inconclusive: 0.0163,–
COc1ccc(-n2c(SCC(=O)N3CCN(c4ccccc4)CC3)nc3c(c2=O)SCC3)cc1,inactive: 0.00389,inconclusive: 0.0063,–,inactive: 0.0101
COC(=O)c1ccc(NC(=O)CSC2=NC(=O)C(c3ccccc3)C(=O)N2)cc1 (stereo not drawn),inconclusive: 0.00726,inactive: 0.00737,–,inconclusive: 0.0108
CCCCNC(=O)c1onc(CSc2cccc3ccccc23)c1C(=O)O,inactive: 0.00596,inconclusive: 0.00597,–,inactive: 0.00939
COc1ccc(-c2cn(-c3ccc(OC)cc3)c(=S)[nH]2)cc1,active: 0.0216,–,inconclusive: 0.0265,–
Cc1nn(-c2ccc(F)cc2)c(C)c1NS(=O)(=O)c1ccc2ccccc2c1,inconclusive: 0.00564,–,inconclusive: 0.0146,–
CC(C)(C)C(=O)NNC(=O)COc1ccc2ccccc2c1Br,active: 0.0203,active: 0.0106,–,inconclusive: 0.0108
Cc1ccccc1-c1nc(CS(=O)CC(=O)NCc2ccccc2)c(C)o1 (stereo not drawn),inconclusive: 0.00515,–,inconclusive: 0.0155,–
CCCN1C(=O)c2ccc(C(=O)Nc3nccs3)cc2C1=O,inconclusive: 0.00545,–,inactive: 0.018,–
O=C(CNCc1cccs1)Nc1cc(S(=O)(=O)N2CCCC2)ccc1Cl,inactive: 0.00419,–,active: 0.0155,–
CN1c2ccccc2C(C)(C)[C@]12C=Cc1cc(O)ccc1O2,inconclusive: 0.0083,–,active: 0.0159,–
CCCCn1c(SCC(=O)Nc2ccc3c(c2)CCC3)nc2ccccc2c1=O,active: 0.0136,–,inconclusive: 0.0257,–
